Results published in PubChem BioAssay AID686978 (National Center for Advancing Translational Sciences (NCATS), 2013).
“And” between values parts separate entries of the source, which are not always exact repeats. Equal entries are not always repeated. About 64,000 (15%) of roughly 420,000 compounds were called active. The inconclusive results got no clear call from the source; some entries with a clear call stand among them for comparison. The call rests on the fitted dose curve; in most records, active means well fitted inhibition curve with a large enough effect; inconclusive means small, poorly fitted or top-dose-only effect; inactive means flat fitted curve, though single readings scatter. Potencies beside an inconclusive call are fits to weak or partial responses and may not hold up.

Assay: qHTS for Inhibitors of human tyrosyl-DNA phosphodiesterase 1 (TDP1): qHTS in cells in absence of CPT; further: nearly all actives have a fitted effect of over 55% in size
Settings: DT40 Tdp1-/- hTDP1 cells, no CPT, ATP luminescence, 48 h; activity change, negative = growth inhibition: at 46.2 µM (top of the series) unless noted
How it was run: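 Growth of hTDP1-complemented DT40 Tdp1-knockout cells is measured by ATP luminescence after at least 48 hr compound exposure at 37 °C, with DMSO substituting for the 20 nM CPT used in the parallel screen.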
On the % scale 0 is the no-effect control and ±100 the full control effect; potency means the concentration at half of the fitted maximal effect; tags describe the fitted curve by direction and shape.

| Structure (SMILES) | Potency | activity change, negative = growth inhibition |
| --- | --- | --- |
| COCCCn1c(SCC(=O)Nc2oc(C)c3c(C)n[nH]c(=O)c23)nc2ccccc2c1=O | inconclusive: 14.6 µM [inhibitor, partial curve] | – |
| Cc1ccc(C(=O)CCC(=O)OCC(=O)N2c3ccccc3NC(=O)C2(C)C)cc1 | inactive | – |
| COc1cc2oc(=O)cc(CN3CCN(c4ccccc4OC)CC3)c2cc1Cl | inconclusive: 14.6 µM [inhibitor, single point] | – |
| Cc1ccc(/C=N/NC(=O)c2cc3c(ccc4ccccc43)o2)o1 | inconclusive: 23.1 µM [inhibitor, single point] | – |
| O=C(CCSc1ccc(Cl)cc1)N1CCN(S(=O)(=O)c2ccccc2)CC1 | active: 18.4 µM | – |
| COc1ccc(/C=N/OCC(=O)Nn2c(C)nc3ccccc3c2=O)cc1 | inactive | – |
| S=c1[nH]nc(-c2cc(-c3ccccc3)n[nH]2)n1/N=C/C=C/c1ccco1 | inconclusive: 29.1 µM [inhibitor, single point] | – |
| COc1ccc(NS(=O)(=O)c2cccc(C(=O)N3CCN(Cc4ccc5c(c4)OCO5)CC3)c2)cc1 | inconclusive: 20.6 µM [inhibitor, single point] | – |
| CCn1c(C(=O)NCc2cccnc2)cc2sc(Cl)cc21 | inconclusive: 22.4 µM [inhibitor, single point] | – |
| O=C(Cn1c(=O)nc(-c2ccccc2)c2ccccc21)NCc1ccc(F)cc1 | inactive | – |
| C#CCNC(=O)C1=C[C@@H](c2ccc(C#C)cc2)[C@H](CCCO)[C@@H](OCC)O1 | inactive | – |
| Cc1c(Cl)cccc1NC(=S)NNS(=O)(=O)c1ccc([N+](=O)[O-])cc1 | inactive | – |
| COC(=O)c1cc(Br)c(=O)n(-c2ccc(OC)cc2)c1 | inactive | – |
| NNC(=O)CN1C(c2ccccc2Br)=Nc2ccc(Br)cc2C1c1ccccc1 (stereo not given) | active: 16.4 µM | – |
| CCOC(=O)CN1C(=O)S/C(=C/c2cc(C)n(-c3ccccn3)c2C)C1=O | inconclusive: 29.1 µM [inhibitor, partial curve, poor fit] | – |
| CC(C(=O)Nc1ccccc1-c1ccccc1)N1CCN(C(=O)c2ccccc2)CC1 (stereo not given) | active: 25.9 µM | – |
| CCc1ccc(CCC(=O)Nc2ccc(Cl)cc2)o1 | inactive | – |
| Oc1ccc(C23CC4CC(CC(C4)C2)C3)cc1O | inconclusive: 29.1 µM [inhibitor, single point] | – |
| CN(C)CCCNC(=O)C(=O)Nc1cc2c3c(c1)CCC(=O)N3CCC2 | inactive | – |
| COCCNC(=O)c1ccccc1NC(=O)c1cc(OC)cc(OC)c1 | inconclusive: 29.1 µM [inhibitor, single point] | – |
| O=C(NCCCN1CCOCC1)c1ccc2c(c1)N(Cc1ccccc1F)C(=O)c1ccccc1S2=O (stereo not given) | inactive | – |
| O=[N+]([O-])c1ccc(O)c(/C=N/Nc2ccc(Cl)nn2)c1 | active: 1.16 µM | – |
| O=C(Oc1ccc(C(=S)N2CCOCC2)cc1Br)c1ccccc1F | – | inconclusive: -33.7% [inhibitor] |
| O=S(=O)(NCCN1CCOCC1)c1ccc2c(c1)OCCO2 | inactive | – |
| Cc1ccsc1C1Nc2ccccc2C(=O)N1O (stereo not given) | inconclusive: 16.4 µM [inhibitor, partial curve, poor fit] | – |

| Structure (SMILES) | Potency | activity change, negative = growth inhibition |
| --- | --- | --- |
| COCCN(C(=O)CCc1ccc(OC)cc1)c1nnc(-c2ccncc2)s1 | inconclusive: 18.4 µM [inhibitor, single point] | – |
| COc1ccc(CN2CCC(C)(Oc3cccc(F)c3)C2)c2ccccc12 (stereo not given) | inconclusive: 25.9 µM [inhibitor, partial curve, poor fit] | – |
| O=C(CN(CCc1c[nH]c2ccccc12)S(=O)(=O)c1ccccc1)N1CCCCCC1 | inconclusive: 25.1 µM [inhibitor, single point] | – |
| NNC(=O)CN1C(c2ccc(Br)cc2)=Nc2ccc(Br)cc2C1c1ccccc1 (stereo not given) | inactive | – |
| c1ccc(C(c2c[nH]c3ccccc23)c2c[nH]c3ccccc23)nc1 | inconclusive: 23.1 µM [inhibitor, single point] | – |
| O=C(Cc1ccccc1[N+](=O)[O-])NNC(=O)c1cccs1 | inactive | – |
| COc1ccc(-c2noc(CN(C(C)C)S(=O)(=O)c3ccc(Br)cc3)n2)cc1 | active: 23.1 µM | – |
| CCCNC(=O)c1ccccc1NC(=O)c1ccccc1N(C)S(=O)(=O)c1ccc(C)cc1 | active: 18.4 µM | – |
| COc1ccc(Br)cc1CN(C)CC(=O)Nc1c(Cl)ccc(C)c1Cl | – | inconclusive: -32.7% [inhibitor] |
| CCSc1nnc(-c2cnn(-c3ccccc3)c2-n2cccc2)n1C | inactive | – |
| O=C(Nc1ccccc1)N(Cc1ccc(F)cc1)c1ccccn1 | inconclusive: 29.1 µM [inhibitor, single point] | – |
| Cc1cc(O)c(C(c2ccccc2)N2CCN(C)CC2)c(=O)n1Cc1ccco1 (stereo not given) | inactive | – |
| O=C(CCc1nnc(Cc2ccc3c(c2)OCO3)o1)NCc1nc2ccccc2s1 | inactive | – |
| COC(=O)Cn1c(=NC(=O)c2nc3ccccc3s2)sc2cc(S(N)(=O)=O)ccc21 | inconclusive: 23.1 µM [inhibitor, single point] | – |
| CCN(CC)CCOC(=O)CCc1cccc2ccccc12 | inactive | – |
| CC(/C=N\NC(=O)c1ccc2c(c1)OCO2)c1ccccc1 (stereo not given) | inactive | – |
| CCOc1cc2c(cc1OCC)C(c1ccc(C(=O)O)cc1)NCC2 (stereo not given) | inactive | – |
| CCOC(=O)c1c(C)[nH]c(C)c1S(=O)(=O)NCC(=O)N1CCN(c2cccc(C)c2)C(C)C1 (stereo not given) | inconclusive: 16.4 µM [inhibitor, single point] | – |
| COc1cc(C2C(C#N)=C(N)Oc3n[nH]c(-c4ccccn4)c32)cc(OC)c1OC (stereo not given) | inactive | – |
| CCOC(=O)C1=CCN(S(=O)(=O)c2ccc(C)cc2)C1c1ccc(Cl)c(Cl)c1 (stereo not given) | inconclusive: 23.1 µM [inhibitor, single point] | – |
| COc1ccc(Cn2cccc(NC(=O)Nc3cccc(OC)c3)c2=O)cc1 | inconclusive: 16.4 µM [inhibitor, single point] | – |
| CN1CCN(c2ccccc2/C=C2/C(=O)Nc3ccccc32)CC1 | inconclusive: 25.9 µM [inhibitor, single point] | – |
| Cc1ccc(/C=C2\SC(=O)N(CCNC(=O)C3CSC4(C)CCC(=O)N34)C2=O)cc1 (stereo not given) | active: 14.6 µM | – |
| COc1ccccc1CCC(=O)OCC(=O)Nc1cccc(S(=O)(=O)N2CCOCC2)c1 | inactive | – |
| Cc1cccc(NC2=CC(c3cccc(Br)c3)N(c3cccc(C)c3)C2=O)c1 (stereo not given) | active: 8.2 µM | – |

| Structure (SMILES) | Potency | activity change, negative = growth inhibition |
| --- | --- | --- |
| C=CCNc1nc(Nc2ccc(Cl)cc2)nc(OC)n1 | inactive | – |
| Cc1ccc(NC(=O)Cc2cn(C)c3ccccc23)cc1F | inactive | – |
| O=S1(=O)CCOC[C@H](c2ccccc2)N1Cc1ccccc1F | inconclusive: 4.47 µM [inhibitor, partial curve, poor fit] and inconclusive: 29.1 µM [inhibitor, single point] | – |
| CCN(CC(=O)Nc1cc(Cl)ccc1C)CC(=O)NC1CC1 | inactive | – |
| CC1(C(=O)NCc2ccccc2)CSCC(=O)N1CCCN1CCOCC1 (stereo not given) | inactive | – |
| Cc1nc2ccc(S(=O)(=O)NC(CC(C)C)C(=O)N3CCN(c4ccc(F)cc4)CC3)cc2s1 (stereo not given) | inconclusive: 20.6 µM [inhibitor, single point] | – |
| O=S(=O)(c1ccccc1)N1CCC2(CC1)CN(C(c1ccccc1)c1ccccc1)C2 | inconclusive: 29.1 µM [inhibitor, single point] | – |
| COC(=O)[C@@H](NC(=O)N(C1CCCCC1)C1CCCCC1)C(C)C | active: 12.6 µM | – |
| CC[C@@]1(C(=O)OC)N[C@H](CN(C)C(=O)COC)[C@@H]2C(=O)N(Cc3ccccc3)C(=O)[C@@H]21 | inactive | – |
| CC(=O)c1ccc(NC(=O)c2cnn3ccccc23)cc1 | inactive | – |
| CC1CC(CCC(=O)NC(=S)Nc2ccc(S(N)(=O)=O)cc2)C(=O)O1 (stereo not given) | inactive | – |
| COc1ccc(C2=CC(c3ccc(OC)c(OC)c3)NC(=S)N2)cc1 (stereo not given) | inactive | – |
| Cc1ccc(CNC(=O)c2c(O)nc3c(C)cccn3c2=O)cc1 | inconclusive: 29.1 µM [inhibitor, single point] | – |
| CCN(CC)CCCNC(=O)c1ccc2c(c1)NC(=O)C(CS(=O)(=O)Cc1cccc(Br)c1)N2 (stereo not given) | inactive | – |
| O=C1C(Cl)=C(N2CCCCCC2)C(=O)N1c1ccc(Br)cc1 | inconclusive: 29.1 µM [inhibitor, single point] | – |
| Cc1ccc(NS(=O)(=O)c2cc(C(=O)NCc3ccccn3)ccc2Cl)cc1 | inactive | – |
| Cc1cccc(C)c1Nc1nnc(SCc2cc([N+](=O)[O-])cc3c2OCOC3)s1 | inconclusive: 35.5 µM [inhibitor, single point] | – |
| COc1ccc(OC)c(NC(=O)c2ccccc2NC(=O)c2ccco2)c1 | inconclusive: 20.6 µM [inhibitor, partial curve] | – |
| CCC(C(=O)c1ccccc1)N(C(=O)c1ccccc1Cl)N1C(=O)C2C3C=CC(C3)C2C1=O (stereo not given) | inconclusive: 16.4 µM [inhibitor, single point] | – |
| COC(=O)NC(NC(=S)Nc1cccc(C)c1)C(Cl)(Cl)Cl (stereo not given) | inconclusive: 32.6 µM [inhibitor, single point] | – |
| COc1ccc(CCN2C(=O)COc3ccccc3C2C(=O)NC(C)(C)C)cc1OC (stereo not given) | inactive | – |
| COc1ccc(Nc2nnc(SCC(=O)c3cc(C)n(CC4CCCO4)c3C)s2)cc1 (stereo not given) | inconclusive: 18.4 µM [inhibitor, single point] | – |
| NS(=O)(=O)c1ccc(-c2ccc(/C=N/Nc3ccc(C(=O)O)cc3)o2)cc1 | inactive | – |
| CN(C)c1ccc(NS(=O)(=O)c2cc3c4c(c2)CC(=O)N4CCC3)cc1 | inconclusive: 10.3 µM [inhibitor, partial curve] | – |
| C/C(=N/OC(=O)C1CC1c1ccccc1)c1ccccc1 (stereo not given) | inactive | – |
